Our source for the binding values is PMC12752501.

Amino acid sequences for entries named in this document (tags omitted). Residues count along the entry.
UniProt Q9WU60, residues 83-1428: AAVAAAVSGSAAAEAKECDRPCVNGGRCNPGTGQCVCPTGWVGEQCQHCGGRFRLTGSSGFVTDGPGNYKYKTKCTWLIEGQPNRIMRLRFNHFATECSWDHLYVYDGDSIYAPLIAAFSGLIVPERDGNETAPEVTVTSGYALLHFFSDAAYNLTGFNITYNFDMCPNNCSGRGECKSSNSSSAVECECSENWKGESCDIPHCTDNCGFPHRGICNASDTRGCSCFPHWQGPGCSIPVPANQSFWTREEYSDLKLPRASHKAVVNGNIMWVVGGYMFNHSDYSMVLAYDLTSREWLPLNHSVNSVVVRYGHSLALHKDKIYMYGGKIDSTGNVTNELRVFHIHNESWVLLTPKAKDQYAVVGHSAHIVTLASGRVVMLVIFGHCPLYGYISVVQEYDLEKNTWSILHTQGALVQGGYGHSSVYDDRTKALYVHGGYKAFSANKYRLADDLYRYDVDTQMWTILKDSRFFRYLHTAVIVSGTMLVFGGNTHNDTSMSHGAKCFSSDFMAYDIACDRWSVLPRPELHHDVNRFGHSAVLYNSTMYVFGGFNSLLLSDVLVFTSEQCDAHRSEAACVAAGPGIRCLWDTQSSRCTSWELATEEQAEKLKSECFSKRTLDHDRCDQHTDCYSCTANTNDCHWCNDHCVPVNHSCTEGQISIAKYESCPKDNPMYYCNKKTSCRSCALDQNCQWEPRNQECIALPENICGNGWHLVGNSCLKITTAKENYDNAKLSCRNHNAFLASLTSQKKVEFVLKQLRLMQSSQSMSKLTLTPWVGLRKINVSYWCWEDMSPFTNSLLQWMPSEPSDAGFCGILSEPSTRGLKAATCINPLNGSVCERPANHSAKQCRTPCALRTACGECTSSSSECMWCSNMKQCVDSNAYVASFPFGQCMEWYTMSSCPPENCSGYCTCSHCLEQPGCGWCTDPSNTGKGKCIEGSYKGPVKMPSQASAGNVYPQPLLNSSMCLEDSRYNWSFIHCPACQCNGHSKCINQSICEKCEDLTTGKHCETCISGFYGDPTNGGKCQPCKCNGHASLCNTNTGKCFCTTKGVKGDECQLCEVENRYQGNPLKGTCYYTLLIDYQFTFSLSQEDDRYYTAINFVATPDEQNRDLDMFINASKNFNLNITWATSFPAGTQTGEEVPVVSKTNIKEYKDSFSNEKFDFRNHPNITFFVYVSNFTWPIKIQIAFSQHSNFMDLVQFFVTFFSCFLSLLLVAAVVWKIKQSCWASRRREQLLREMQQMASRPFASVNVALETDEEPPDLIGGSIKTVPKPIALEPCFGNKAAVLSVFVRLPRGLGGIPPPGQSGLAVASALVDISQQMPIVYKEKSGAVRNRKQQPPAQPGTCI
UniProt Q5VV63, residues 53-1379: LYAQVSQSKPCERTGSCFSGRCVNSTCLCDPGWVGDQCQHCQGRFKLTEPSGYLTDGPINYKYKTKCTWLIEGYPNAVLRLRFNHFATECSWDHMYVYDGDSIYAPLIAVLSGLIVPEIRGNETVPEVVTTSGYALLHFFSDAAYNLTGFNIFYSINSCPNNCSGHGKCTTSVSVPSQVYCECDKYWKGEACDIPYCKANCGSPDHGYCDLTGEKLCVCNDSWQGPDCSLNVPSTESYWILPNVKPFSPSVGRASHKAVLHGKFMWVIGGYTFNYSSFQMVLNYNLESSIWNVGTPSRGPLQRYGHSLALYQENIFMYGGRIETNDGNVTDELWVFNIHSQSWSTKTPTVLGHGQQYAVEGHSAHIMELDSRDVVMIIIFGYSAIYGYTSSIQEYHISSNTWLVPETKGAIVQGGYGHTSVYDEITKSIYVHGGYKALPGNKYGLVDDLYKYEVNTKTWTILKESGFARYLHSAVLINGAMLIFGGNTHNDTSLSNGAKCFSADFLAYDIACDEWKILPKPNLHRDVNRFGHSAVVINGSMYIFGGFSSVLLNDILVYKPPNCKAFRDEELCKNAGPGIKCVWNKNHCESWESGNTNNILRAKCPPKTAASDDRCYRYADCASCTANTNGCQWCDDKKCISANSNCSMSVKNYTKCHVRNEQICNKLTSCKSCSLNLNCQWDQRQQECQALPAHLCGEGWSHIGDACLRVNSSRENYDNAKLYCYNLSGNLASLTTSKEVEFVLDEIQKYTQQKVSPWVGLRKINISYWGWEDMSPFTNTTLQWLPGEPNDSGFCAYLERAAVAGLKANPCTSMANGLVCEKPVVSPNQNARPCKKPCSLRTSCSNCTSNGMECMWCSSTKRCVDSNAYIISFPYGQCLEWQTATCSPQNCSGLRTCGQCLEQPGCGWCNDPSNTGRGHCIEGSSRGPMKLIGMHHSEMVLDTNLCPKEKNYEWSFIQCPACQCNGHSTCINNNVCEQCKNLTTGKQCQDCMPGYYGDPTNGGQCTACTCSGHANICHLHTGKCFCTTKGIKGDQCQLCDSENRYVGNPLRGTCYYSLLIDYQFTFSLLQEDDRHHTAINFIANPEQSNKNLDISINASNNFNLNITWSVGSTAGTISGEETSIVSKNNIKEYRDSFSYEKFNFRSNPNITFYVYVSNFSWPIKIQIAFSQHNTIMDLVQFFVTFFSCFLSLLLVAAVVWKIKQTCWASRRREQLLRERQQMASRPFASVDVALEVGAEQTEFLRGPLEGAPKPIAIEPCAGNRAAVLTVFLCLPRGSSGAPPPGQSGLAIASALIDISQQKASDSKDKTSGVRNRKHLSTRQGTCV
UniProt Q7Z7M0, residues 28-2845: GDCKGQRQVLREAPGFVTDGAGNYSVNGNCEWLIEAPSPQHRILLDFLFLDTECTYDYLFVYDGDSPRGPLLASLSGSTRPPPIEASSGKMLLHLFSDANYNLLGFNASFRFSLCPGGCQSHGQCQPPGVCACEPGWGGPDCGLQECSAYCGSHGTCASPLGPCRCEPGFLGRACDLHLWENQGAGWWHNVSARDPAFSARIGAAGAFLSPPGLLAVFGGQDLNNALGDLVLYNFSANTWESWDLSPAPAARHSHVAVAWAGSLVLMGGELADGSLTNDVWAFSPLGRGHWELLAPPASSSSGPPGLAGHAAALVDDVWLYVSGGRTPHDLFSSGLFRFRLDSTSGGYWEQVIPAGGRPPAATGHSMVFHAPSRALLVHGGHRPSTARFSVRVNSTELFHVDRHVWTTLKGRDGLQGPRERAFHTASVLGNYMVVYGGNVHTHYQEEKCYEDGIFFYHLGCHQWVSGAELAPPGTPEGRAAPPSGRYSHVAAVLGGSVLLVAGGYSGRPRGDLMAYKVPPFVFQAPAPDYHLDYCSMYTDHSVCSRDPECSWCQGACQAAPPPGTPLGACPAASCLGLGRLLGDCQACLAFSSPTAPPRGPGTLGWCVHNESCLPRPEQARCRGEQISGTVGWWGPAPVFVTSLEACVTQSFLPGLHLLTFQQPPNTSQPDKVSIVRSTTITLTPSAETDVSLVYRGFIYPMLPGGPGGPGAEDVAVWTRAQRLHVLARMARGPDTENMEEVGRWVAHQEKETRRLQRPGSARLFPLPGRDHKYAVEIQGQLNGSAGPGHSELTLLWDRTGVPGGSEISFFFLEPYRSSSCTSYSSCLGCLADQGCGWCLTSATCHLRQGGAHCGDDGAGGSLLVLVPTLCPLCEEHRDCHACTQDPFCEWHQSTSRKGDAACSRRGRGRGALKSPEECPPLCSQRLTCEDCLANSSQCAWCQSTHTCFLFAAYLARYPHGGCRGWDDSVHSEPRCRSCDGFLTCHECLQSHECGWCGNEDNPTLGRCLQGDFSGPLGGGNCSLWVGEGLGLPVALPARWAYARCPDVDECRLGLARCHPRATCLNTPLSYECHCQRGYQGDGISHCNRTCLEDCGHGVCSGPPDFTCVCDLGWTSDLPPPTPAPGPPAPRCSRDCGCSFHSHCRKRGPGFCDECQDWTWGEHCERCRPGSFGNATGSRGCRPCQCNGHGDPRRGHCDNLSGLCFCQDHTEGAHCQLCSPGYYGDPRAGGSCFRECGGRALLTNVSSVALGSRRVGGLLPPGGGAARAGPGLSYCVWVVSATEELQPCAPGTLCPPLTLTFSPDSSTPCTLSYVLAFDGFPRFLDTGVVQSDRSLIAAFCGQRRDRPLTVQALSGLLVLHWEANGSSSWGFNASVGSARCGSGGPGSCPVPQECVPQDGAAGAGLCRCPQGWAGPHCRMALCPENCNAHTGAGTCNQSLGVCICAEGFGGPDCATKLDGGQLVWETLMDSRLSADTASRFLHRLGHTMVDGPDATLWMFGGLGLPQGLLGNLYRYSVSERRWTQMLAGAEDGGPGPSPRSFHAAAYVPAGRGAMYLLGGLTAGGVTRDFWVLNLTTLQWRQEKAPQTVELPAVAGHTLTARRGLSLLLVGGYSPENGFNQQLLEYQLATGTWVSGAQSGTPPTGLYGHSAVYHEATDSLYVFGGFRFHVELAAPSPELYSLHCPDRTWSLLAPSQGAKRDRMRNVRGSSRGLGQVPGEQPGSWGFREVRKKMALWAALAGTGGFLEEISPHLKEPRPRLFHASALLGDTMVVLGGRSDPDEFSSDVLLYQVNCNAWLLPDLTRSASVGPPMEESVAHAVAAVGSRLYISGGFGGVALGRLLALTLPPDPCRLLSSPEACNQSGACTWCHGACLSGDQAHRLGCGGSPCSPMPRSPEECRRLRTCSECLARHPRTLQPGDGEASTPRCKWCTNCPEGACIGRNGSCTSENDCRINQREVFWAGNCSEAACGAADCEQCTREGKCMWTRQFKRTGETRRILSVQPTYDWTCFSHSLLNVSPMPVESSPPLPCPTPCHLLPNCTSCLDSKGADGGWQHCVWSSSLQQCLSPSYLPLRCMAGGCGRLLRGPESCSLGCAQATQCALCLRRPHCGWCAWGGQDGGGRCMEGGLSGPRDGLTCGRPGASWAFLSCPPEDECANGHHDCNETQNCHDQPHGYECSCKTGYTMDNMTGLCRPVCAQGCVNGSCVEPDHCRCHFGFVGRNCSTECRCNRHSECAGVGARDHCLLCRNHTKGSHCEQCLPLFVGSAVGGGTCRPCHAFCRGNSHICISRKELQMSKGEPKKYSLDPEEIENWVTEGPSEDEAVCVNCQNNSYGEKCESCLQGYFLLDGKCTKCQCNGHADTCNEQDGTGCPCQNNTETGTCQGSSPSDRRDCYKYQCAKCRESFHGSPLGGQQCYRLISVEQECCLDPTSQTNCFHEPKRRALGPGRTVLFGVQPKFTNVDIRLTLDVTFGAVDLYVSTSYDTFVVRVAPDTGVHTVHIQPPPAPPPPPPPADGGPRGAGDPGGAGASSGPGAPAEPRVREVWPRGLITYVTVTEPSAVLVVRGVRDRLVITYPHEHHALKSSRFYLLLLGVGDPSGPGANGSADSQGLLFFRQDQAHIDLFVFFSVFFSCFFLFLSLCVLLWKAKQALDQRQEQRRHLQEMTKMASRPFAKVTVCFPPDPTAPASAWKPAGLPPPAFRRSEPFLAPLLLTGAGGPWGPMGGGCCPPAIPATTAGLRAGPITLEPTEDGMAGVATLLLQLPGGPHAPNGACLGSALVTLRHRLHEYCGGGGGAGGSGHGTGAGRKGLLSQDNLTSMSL
UniProt P32245, residues 2-332: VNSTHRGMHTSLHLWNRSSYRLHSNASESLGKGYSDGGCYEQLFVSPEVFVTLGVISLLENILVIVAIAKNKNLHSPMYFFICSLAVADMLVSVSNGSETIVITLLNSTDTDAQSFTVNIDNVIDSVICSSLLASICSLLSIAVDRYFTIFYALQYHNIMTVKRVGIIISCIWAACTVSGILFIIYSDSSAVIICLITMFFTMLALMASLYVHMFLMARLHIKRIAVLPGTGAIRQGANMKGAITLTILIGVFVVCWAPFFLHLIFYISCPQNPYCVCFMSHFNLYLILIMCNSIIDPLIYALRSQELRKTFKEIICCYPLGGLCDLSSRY

Results are given in words; binding and its absence hold for the method and conditions named. Binding seen in cells or lysates may run through a third protein. Some binding calls cover weakened binding; strength is not graded here. Sequences can lack the tags named with a protein.

Assay [1] concerns the target T1, Mgrn1^R318E-Flag, in HEK293T (mouse) (UniProt Q9D074).
T1 sequence: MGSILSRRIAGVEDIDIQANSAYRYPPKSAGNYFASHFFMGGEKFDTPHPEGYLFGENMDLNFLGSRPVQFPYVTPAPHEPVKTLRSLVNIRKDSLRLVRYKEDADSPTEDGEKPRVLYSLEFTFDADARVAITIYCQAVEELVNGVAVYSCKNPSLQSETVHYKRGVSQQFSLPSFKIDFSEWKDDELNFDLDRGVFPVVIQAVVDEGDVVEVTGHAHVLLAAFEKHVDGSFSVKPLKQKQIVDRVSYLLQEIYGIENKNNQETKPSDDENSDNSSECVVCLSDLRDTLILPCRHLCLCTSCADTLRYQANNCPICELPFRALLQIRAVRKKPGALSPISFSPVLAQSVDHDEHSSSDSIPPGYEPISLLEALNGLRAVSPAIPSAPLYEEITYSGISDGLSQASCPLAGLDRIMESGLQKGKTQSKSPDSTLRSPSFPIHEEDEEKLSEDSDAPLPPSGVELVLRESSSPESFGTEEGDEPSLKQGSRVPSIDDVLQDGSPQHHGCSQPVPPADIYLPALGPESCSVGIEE
Put plainly: co-IP; HEK293T transfected with MC1R-Venus or MC4R-Venus and Mgrn1-Flag (wild-type or R318E); anti-FLAG beads pull down MGRN1, blot with anti-GFP antibody.

In assay [2] the target is T2, Mgrn1-Flag (wild-type), in HEK293T (mouse) (UniProt Q9D074).
T2 sequence: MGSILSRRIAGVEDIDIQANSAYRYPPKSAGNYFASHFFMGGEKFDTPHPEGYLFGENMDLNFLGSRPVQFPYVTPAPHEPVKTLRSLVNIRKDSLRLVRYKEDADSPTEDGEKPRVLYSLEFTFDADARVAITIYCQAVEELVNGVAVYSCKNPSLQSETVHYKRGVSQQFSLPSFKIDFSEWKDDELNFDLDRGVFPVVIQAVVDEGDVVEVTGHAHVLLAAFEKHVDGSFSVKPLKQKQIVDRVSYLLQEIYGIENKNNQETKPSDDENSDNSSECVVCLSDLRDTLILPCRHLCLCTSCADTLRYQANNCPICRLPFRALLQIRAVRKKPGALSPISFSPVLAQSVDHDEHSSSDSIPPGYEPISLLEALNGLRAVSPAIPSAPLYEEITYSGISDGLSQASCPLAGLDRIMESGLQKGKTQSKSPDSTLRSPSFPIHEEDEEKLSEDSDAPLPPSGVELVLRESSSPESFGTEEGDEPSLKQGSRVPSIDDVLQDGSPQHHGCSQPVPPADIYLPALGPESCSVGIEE
The assay is described as above.

Assay [3] deals with T3, Mgrn1-Flag (wild-type), stable addback in NIH/3T3 (mouse) (UniProt Q9D074).
T3 sequence: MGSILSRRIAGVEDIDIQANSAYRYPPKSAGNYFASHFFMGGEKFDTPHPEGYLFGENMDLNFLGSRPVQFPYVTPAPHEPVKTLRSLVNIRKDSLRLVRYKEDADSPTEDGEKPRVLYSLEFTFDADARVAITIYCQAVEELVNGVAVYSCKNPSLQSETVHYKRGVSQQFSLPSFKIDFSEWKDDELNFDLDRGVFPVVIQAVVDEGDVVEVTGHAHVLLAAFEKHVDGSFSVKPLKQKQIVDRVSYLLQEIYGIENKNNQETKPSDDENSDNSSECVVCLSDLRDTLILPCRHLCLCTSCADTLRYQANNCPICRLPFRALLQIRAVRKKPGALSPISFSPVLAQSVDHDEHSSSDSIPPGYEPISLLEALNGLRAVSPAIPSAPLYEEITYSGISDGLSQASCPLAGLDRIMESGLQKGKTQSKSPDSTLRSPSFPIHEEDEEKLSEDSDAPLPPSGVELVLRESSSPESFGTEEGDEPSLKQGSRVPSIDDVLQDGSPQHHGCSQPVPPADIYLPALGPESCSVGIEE
Put plainly: co-IP; Mgrn1−/−; Rnf157−/− NIH/3T3 cells stably expressing FLAG-tagged wild-type or truncated Mgrn1; immunoprecipitated with anti-FLAG M2 magnetic beads, blot for endogenous ATRN; ATRN signal normalised to FLAG-MGRN1.

A further assay has as its target Atrn-1D4 (mouse) (UniProt Q9WU60). Put plainly: co-IP; HEK293T transiently transfected with 1D4-tagged MEGF8, Atrn or ATRNL1, FLAG-tagged Mgrn1 (wild-type or R318E) and HA-tagged Mosmo; immunoprecipitated with anti-1D4 beads, western blotting; washes up to 500 mM NaCl.
The next assay has as its target ATRNL1-1D4 (human) (UniProt Q5VV63). Described as above.
For the next assay, the target named is MEGF8-1D4 (UniProt Q7Z7M0). The assay is described as above.

On to “MC4R-mVenus (from UniProt P32245 2-332) (receptor)”, for which the binding entry in assay [1] and in assay [2] was “binds” throughout.
On to “endogenous ATRN (attractin) (from UniProt Q9WU60 83-1428)”, for which the binding result in assay [3] is on record as “binds”.

B1: MC1R-mVenus (receptor, UniProt Q01726 2-317)
chain: AVQGSQRRLLGSLNSTPTAIPQLGLAANQTGARCLEVSISDGLFLSLGLVSLVENALVVATIAKNRNLHSPMYCFICCLALSDLLVSGSNVLETAVILLLEAGALVARAAVLQQLDNVIDVITCSSMLSSLCFLGAIAVDRYISIFYALRYHSIVTLPRARRAVAAIWVASVVFSTLFIAYYDHVAVLLCLVVFFLAMLVLMAVLYVHMLARACQHAQGIARLHKRQRPVHQGFGLKGAVTLTILLGIFFLCWGPFFLHLTLIVLCPEHPTCGCIFKNFNLFLALIICNAIIDPLIYAFHSQELRRTLKEVLTCSW
With B1, the binding result in assay [1] and in assay [2] was “binds” each time.

B2: Mosmo-HA (protein, UniProt Q8C784 1-167)
chain: MDKLTIISGCLFLAADIFAIASIANPDWINTGESAGALTVGLVRQCQTIHGRDRTCIPPRLPPEWVTTLFFIIMGIISLTVTCGLLVASHWRREATKYARWIAFTGMILFCMAALIFPIGFYINEVGGQPYKLPNNTVVGSSYVLFVLSIFFTIVGLLFAGKVCLPG
In the case of B2, the binding result in the assay with Atrn-1D4 (mouse) and with ATRNL1-1D4 (human) was “no binding” each time.

B3: Mgrn1-Flag (wild-type), in HEK293T (enzyme, UniProt Q9D074-2 1-533)
chain: MGSILSRRIAGVEDIDIQANSAYRYPPKSAGNYFASHFFMGGEKFDTPHPEGYLFGENMDLNFLGSRPVQFPYVTPAPHEPVKTLRSLVNIRKDSLRLVRYKEDADSPTEDGEKPRVLYSLEFTFDADARVAITIYCQAVEELVNGVAVYSCKNPSLQSETVHYKRGVSQQFSLPSFKIDFSEWKDDELNFDLDRGVFPVVIQAVVDEGDVVEVTGHAHVLLAAFEKHVDGSFSVKPLKQKQIVDRVSYLLQEIYGIENKNNQETKPSDDENSDNSSECVVCLSDLRDTLILPCRHLCLCTSCADTLRYQANNCPICRLPFRALLQIRAVRKKPGALSPISFSPVLAQSVDHDEHSSSDSIPPGYEPISLLEALNGLRAVSPAIPSAPLYEEITYSGISDGLSQASCPLAGLDRIMESGLQKGKTQSKSPDSTLRSPSFPIHEEDEEKLSEDSDAPLPPSGVELVLRESSSPESFGTEEGDEPSLKQGSRVPSIDDVLQDGSPQHHGCSQPVPPADIYLPALGPESCSVGIEE
For B3, the binding entry in the assay with MEGF8-1D4, in the assay with Atrn-1D4 (mouse) and in the assay with ATRNL1-1D4 (human) was “binds” in each case.
